The source of these data is the supplement of paper PMC12423691.

The chains are these.
B1: LZTR1, Q8N653 (protein)
chain: MAGPGSTGGQIGAAALAGGARSKVAPSVDFDHSCSDSVEYLTLNFGPFETVHRWRRLPPCDEFVGARRSKHTVVAYKDAIYVFGGDNGKTMLNDLLRFDVKDCSWCRAFTTGTPPAPRYHHSAVVYGSSMFVFGGYTGDIYSNSNLKNKNDLFEYKFATGQWTEWKIEGRLPVARSAHGATVYSDKLWIFAGYDGNARLNDMWTIGLQDRELTCWEEVAQSGEIPPSCCNFPVAVCRDKMFVFSGQSGAKITNNLFQFEFKDKTWTRIPTEHLLRGSPPPPQRRYGHTMVAFDRHLYVFGGAADNTLPNELHCYDVDFQTWEVVQPSSDSEVGGAEVPERACASEEVPTLTYEERVGFKKSRDVFGLDFGTTSAKQPTQPASELPSGRLFHAAAVISDAMYIFGGTVDNNIRSGEMYRFQFSCYPKCTLHEDYGRLWESRQFCDVEFVLGEKEECVQGHVAIVTARSRWLRRKITQARERLAQKLEQEAAPVPREAPGVAAGGARPPLLHVAIREAEARPFEVLMQFLYTDKIKYPRKGHVEDVLLIMDVYKLALSFQLCRLEQLCRQYIEASVDLQNVLVVCESAARLQLSQLKEHCLNFVVKESHFNQVIMMKEFERLSSPLIVEIVRRKQQPPPRTPLDQPVDIGTSLIQDMKAYLEGAGAEFCDITLLLDGHPRPAHKAILAARSSYFEAMFRSFMPEDGQVNISIGEMVPSRQAFESMLRYIYYGEVNMPPEDSLYLFAAPYYYGFYNNRLQAYCKQNLEMNVTVQNVLQILEAADKTQALDMKRHCLHIIVHQFTKVSKLPTLRSLSQQLLLDIIDSLASHISDKQCAELGADI
B2: FOXP3, Q9BZS1 (protein)
chain: MPNPRPGKPSAPSLALGPSPGASPSWRAAPKASDLLGARGPGGTFQGRDLRGGAHASSSSLNPMPPSQLQLPTLPLVMVAPSGARLGPLPHLQALLQDRPHFMHQLSTVDAHARTPVLQVHPLESPAMISLTPPTTATGVFSLKARPGLPPGINVASLEWVSREPALLCTFPNPSAPRKDSTLSAVPQSSYPLLANGVCKWPGCEKVFEEPEDFLKHCQADHLLDEKGRAQCLLQREMVQSLEQQLVLEKEKLSAMQAHLAGKMALTKASSVASSDKGSCCIVAAGSQGPVVPAWSGPREAPDSLFAVRRHLWGSHGNSTFPEFLHNMDYFKFHNMRPPFTYATLIRWAILEAPEKQRTLNEIYHWFTRMFAFFRNHPATWKNAIRHNLSLHKCFVRVESEKGAVWTVDELEFRKKRSQRPSRCSNPTPGP
B3: ZNF165, P49910 (protein)
chain: MATEPKKAAAQNSPEDEGLLIVKIEEEEFIHGQDTCLQRSELLKQELCRQLFRQFCYQDSPGPREALSRLRELCCQWLKPEIHTKEQILELLVLEQFLTILPGDLQAWVHEHYPESGEEAVTILEDLERGTDEAVLQVQAHEHGQEIFQKKVSPPGPALNVKLQPVETKAHFDSSEPQLLWDCDNESENSRSMPKLEIFEKIESQRIISGRISGYISEASGESQDICKSAGRVKRQWEKESGESQRLSSAQDEGFGKILTHKNTVRGEIISHDGCERRLNLNSNEFTHQKSCKHGTCDQSFKWNSDFINHQIIYAGEKNHQYGKSFKSPKLAKHAAVFSGDKTHQCNECGKAFRHSSKLARHQRIHTGERCYECNECGKSFAESSDLTRHRRIHTGERPFGCKECGRAFNLNSHLIRHQRIHTREKPYECSECGKTFRVSSHLIRHFRIHTGEKPYECSECGRAFSQSSNLSQHQRIHMRENLLM
B4: TAF13, Q15543 (protein)
chain: MADEEEDPTFEEENEEIGGGAEGGQGKRKRLFSKELRCMMYGFGDDQNPYTESVDILEDLVIEFITEMTHKAMSIGRQGRVQVEDIVFLIRKDPRKFARVKDLLTMNEELKRARKAFDEANYGS
B5: SALL1, Q9NSC2 (protein)
chain: MSRRKQAKPQHFQSDPEVASLPRRDGDTEKGQPSRPTKSKDAHVCGRCCAEFFELSDLLLHKKNCTKNQLVLIVNENPASPPETFSPSPPPDNPDEQMNDTVNKTDQVDCSDLSEHNGLDREESMEVEAPVANKSGSGTSSGSHSSTAPSSSSSSSSSSGGGGSSSTGTSAITTSLPQLGDLTTLGNFSVINSNVIIENLQSTKVAVAQFSQEARCGGASGGKLAVPALMEQLLALQQQQIHQLQLIEQIRHQILLLASQNADLPTSSSPSQGTLRTSANPLSTLSSHLSQQLAAAAGLAQSLASQSASISGVKQLPPIQLPQSSSGNTIIPSNSGSSPNMNILAAAVTTPSSEKVASSAGASHVSNPAVSSSSSPAFAISSLLSPASNPLLPQQASANSVFPSPLPNIGTTAEDLNSLSALAQQRKSKPPNVTAFEAKSTSDEAFFKHKCRFCAKVFGSDSALQIHLRSHTGERPFKCNICGNRFSTKGNLKVHFQRHKEKYPHIQMNPYPVPEHLDNIPTSTGIPYGMSIPPEKPVTSWLDTKPVLPTLTTSVGLPLPPTLPSLIPFIKTEEPAPIPISHSATSPPGSVKSDSGGPESATRNLGGLPEEAEGSTLPPSGGKSEESGMVTNSVPTASSSVLSSPAADCGPAGSATTFTNPLLPLMSEQFKAKFPFGGLLDSAQASETSKLQQLVENIDKKATDPNECIICHRVLSCQSALKMHYRTHTGERPFKCKICGRAFTTKGNLKTHYSVHRAMPPLRVQHSCPICQKKFTNAVVLQQHIRMHMGGQIPNTPVPDSYSESMESDTGSFDEKNFDDLDNFSDENMEDCPEGSIPDTPKSADASQDSLSSSPLPLEMSSIAALENQMKMINAGLAEQLQASLKSVENGSIEGDVLTNDSSSVGGDMESQSAGSPAISESTSSMQALSPSNSTQEFHKSPSIEEKPQRAVPSEFANGLSPTPVNGGALDLTSSHAEKIIKEDSLGILFPFRDRGKFKNTACDICGKTFACQSALDIHYRSHTKERPFICTVCNRGFSTKGNLKQHMLTHQMRDLPSQLFEPSSNLGPNQNSAVIPANSLSSLIKTEVNGFVHVSPQDSKDTPTSHVPSGPLSSSATSPVLLPALPRRTPKQHYCNTCGKTFSSSSALQIHERTHTGEKPFACTICGRAFTTKGNLKVHMGTHMWNSTPARRGRRLSVDGPMTFLGGNPVKFPEMFQKDLAARSGSGDPSSFWNQYAAALSNGLAMKANEISVIQNGGIPPIPGSLGSGNSSPVSGLTGNLERLQNSEPNAPLAGLEKMASSENGTNFRFTRFVEDSKEIVTS

The list shows a part of the results. Binding of human transcription factors and regulators to the viral nucleoprotein by AlphaScreen, crude cell-free proteins, amounts not normalised, one pass. Fold of the Venus control; higher = more signal. No active / inactive call. Single-pass screen; sequences are the whole Swiss-Prot entries looked up by name.

This assay concerns the target nucleoprotein N of Crimean-Congo hemorrhagic fever virus. Nature of the assay: AlphaScreen luminescence signal relative to Venus negative control (fold); higher = stronger binding to CCHFV N. On the procedure:
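AlphaScreen binding of cell-free made, FLAG-GST-tagged human transcription factors and regulators (crude translation products) to biotinylated N protein; signal as fold of the FLAG-GST-Venus control. One pass.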
For orientation: Alpha assays give light when donor and acceptor beads are brought close together.
In turn, B1 returned an AlphaScreen luminescence signal of 3.44. The value for B2 was 1.86; that for B3 was 1.72. The figure for B4 is 1.58; for B5 it is 2.6.
